The campaign covered roughly 310,000 compounds. About 2,200 (0.71%) showed an effect of 50% or more. The effect is printed as a negative number. The list shows a part of the results.
Target: human ether-à-go-go-related gene (hERG) potassium channel (human, UniProt Q12809)
Assay: primary screen, population patch clamp on CHO cells stably expressing hERG

Chain of human ether-à-go-go-related gene (hERG) potassium channel (Q12809 whole entry, looked up): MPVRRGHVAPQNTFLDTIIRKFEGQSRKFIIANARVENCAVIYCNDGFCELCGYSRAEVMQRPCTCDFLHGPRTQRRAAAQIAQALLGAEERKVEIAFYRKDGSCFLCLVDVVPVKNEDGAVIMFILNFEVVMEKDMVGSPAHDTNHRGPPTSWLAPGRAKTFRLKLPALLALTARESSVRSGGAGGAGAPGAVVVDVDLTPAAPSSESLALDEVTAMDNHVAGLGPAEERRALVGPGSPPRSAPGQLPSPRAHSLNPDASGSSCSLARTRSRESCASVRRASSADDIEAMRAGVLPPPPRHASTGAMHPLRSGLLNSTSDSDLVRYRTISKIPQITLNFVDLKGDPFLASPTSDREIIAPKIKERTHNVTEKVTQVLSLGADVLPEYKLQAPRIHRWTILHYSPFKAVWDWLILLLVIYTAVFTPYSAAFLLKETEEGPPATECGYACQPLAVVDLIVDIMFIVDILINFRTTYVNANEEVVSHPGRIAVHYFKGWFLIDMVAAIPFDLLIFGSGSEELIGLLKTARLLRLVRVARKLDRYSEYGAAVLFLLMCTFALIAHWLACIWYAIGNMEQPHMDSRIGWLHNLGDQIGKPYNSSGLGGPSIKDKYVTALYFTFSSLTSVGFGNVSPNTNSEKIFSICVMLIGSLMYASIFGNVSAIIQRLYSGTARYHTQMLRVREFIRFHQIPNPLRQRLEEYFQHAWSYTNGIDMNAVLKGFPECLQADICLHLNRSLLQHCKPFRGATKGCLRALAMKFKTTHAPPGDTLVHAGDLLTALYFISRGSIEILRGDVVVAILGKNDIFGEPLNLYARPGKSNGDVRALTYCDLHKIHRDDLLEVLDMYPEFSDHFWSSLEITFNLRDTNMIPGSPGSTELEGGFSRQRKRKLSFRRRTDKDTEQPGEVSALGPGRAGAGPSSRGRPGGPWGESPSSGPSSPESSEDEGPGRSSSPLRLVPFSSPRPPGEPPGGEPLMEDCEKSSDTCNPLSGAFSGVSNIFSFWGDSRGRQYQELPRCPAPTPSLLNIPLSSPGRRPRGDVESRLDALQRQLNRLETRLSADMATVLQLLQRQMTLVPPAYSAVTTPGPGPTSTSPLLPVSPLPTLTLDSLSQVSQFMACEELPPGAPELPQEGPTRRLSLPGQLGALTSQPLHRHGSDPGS

Row | Structure (SMILES) | hERG current change (%, negative = inhibition) at 1uM [%]
1 | COCc1c(N)c(C)nc(Cl)c1C#N.Cl | 20.3
2 | Cc1[nH]c2ccc(C(=O)OCCN(C)C)cc2c1C | 2.1
3 | O=C(O)C(=O)O.c1ccc(COc2ccc(OCCCCN3CCCCC3)cc2)cc1 | -46.8
4 | O=C(C1=C[C@H](c2ccc(C(F)(F)F)cc2)C[C@H](OCc2ccc(CO)cc2)O1)N1CCCCCCC1 | 5.66
5 | CC(OC(=O)c1ccc(Cl)nc1)C(=O)NCc1ccc2c(c1)OCO2 (centres unmarked) | -6.96
6 | O=C(NC1CCSc2ccccc21)c1cccc(S(=O)(=O)N2CCOCC2)c1 (centres unmarked) | 12.4
7 | Cc1noc(C)c1CSc1nnc(-c2cc(Cl)ccc2Cl)n1N | 13.3
8 | CC(C)CC(=O)NC(=S)Nc1ccc(N2CCOCC2)cc1 | 4.99
9 | Cl.c1ccc(NNC2=NCCCCC2)cc1 | 13.1
10 | O=C(CSc1cnc2ccccc2n1)NC1CCCC1 | 0.651
11 | CCOC(=O)N1CCN(S(=O)(=O)c2ccc3c(c2)CC(C)N3C(=O)C2CC2)CC1 (centres unmarked) | 20.7
12 | COc1ccccc1C(=O)NC(C)c1ccccc1 (centres unmarked) | 18.2
13 | COc1ccc(S(=O)(=O)Nc2ccc(S(=O)(=O)N(C)C)cc2)cc1[N+](=O)[O-] | 3.83
14 | O=C(Nc1ccc(Cl)cc1)Nc1ccccc1NS(=O)(=O)c1cccs1 | 12.4
15 | Cc1nn(-c2ccc(F)cc2)c(Cl)c1/C=C(\CC(=O)O)c1nc2ccccc2s1 | -0.919
16 | CCCCOc1ccc(C(=O)CCN2CCCCC2)cc1.Cl | -24.1
17 | O=C(Nc1ccc(S(=O)(=O)N2CCCCC2)cc1)c1ccc(CN2CCOCC2)cc1 | -8.92
18 | Cc1ccc(CCNC(=O)NC(C)(C)C)cc1 | 6.2
19 | CCOc1ccccc1C(C(=O)NC1CCCC1)N(Cc1ccco1)C(=O)CNC(=O)c1ccco1 (centres unmarked) | 5.42
20 | COc1ccc(CNCCCO)cc1OC | 11.5
21 | CCCC1=Nc2cc(C(=O)NCCN3CCCC3)ccc2Sc2ccccc21 | 3.75
22 | N#CC1CN(C(c2ccccc2)c2ccccc2)C1 | 7.35

Row | Structure (SMILES) | hERG current change (%, negative = inhibition) at 1uM [%]
23 | COC(=O)C/C(N)=C(\C#N)C(=O)OC | 13.3
24 | COc1ccc(NC(=O)CCNS(=O)(=O)c2cccc3nsnc23)c(OC)c1 | 11
25 | Cc1cc2cc3c(=O)[nH]c(=O)[nH]c3nc2cc1C | 12.1
26 | O=c1c(Cc2ccc(F)cc2)c(O)ccn1Cc1ccco1 | 9.56
27 | C#CCN(N(C)c1ncc(C(F)(F)F)cc1Cl)S(=O)(=O)c1ccc2ccccc2c1 | 14.3
28 | O=[N+]([O-])c1ccc(Oc2cc(NC3CCCCCCC3)c([N+](=O)[O-])cc2[N+](=O)[O-])cc1 | -8.21
29 | FC(F)(F)c1cc(Cl)c2nnc(C(F)(F)Cl)n2c1 | 7.19
30 | Fc1ccc(Nc2nc(-c3ccncc3)nc3ccccc23)cc1 | 6.38
31 | CC(=O)c1c(N2CCN(C)CC2)nc(=S)n(-c2cc(C)ccc2C)c1C | 13.3
32 | O=C(COC(=O)CCCc1nc2ccccc2s1)NC(=O)NCc1ccco1 | 13.7
33 | CCOc1ccc2nc(NC(=O)c3ccco3)sc2c1 | 14.5
34 | O=C(NCc1ccco1)c1ccc2ccccc2c1 | 3.04
35 | COc1ccc(/C(N)=N/OC(=O)CCc2ccccc2)cc1OC | -3.29
36 | O=C(CN1C(=O)/C(=C\c2ccco2)SC1=S)Nc1ccc(O)cc1C(=O)O | 6.18
37 | O=[N+]([O-])C(=C1Nc2ccccc2N1)C(Cl)=C(Cl)Cl | 14.6
38 | O=C(Nc1cccnc1)c1cc(-c2cccc(Br)c2)nc2ccccc12 | -0.648
39 | Cc1cccc(OCc2nnc(SCC(=O)c3cccs3)n2C)c1C | -1.86
40 | Cc1[nH]c(=O)[nH]c(=O)c1NS(=O)(=O)c1ccccc1 | 25
41 | Cc1[nH]c2ccccc2c1C(=O)COC(=O)c1c(-c2ccccc2)noc1C | 2.68
42 | CN1CCN(c2nc(Nc3ccc(F)cc3)nc(Nc3ccc(F)cc3)n2)CC1 | -0.878
43 | CN(Cc1ccccc1)c1ccc(C(CC(N)=O)NC(=O)c2ccccc2)cc1[N+](=O)[O-] (centres unmarked) | 10.5
44 | CC(CCCN(C)C)C(Cc1ccccc1)c1ccccc1.Cl (centres unmarked) | 9.89
